Test results as given in the supplement of paper PMC8728848.
Some of the results follow.

How the values were obtained:
Experiment in all cases: glycan array binding signal (z-score within array); higher = stronger binding
Details in all cases: glycan notation: IUPAC condensed, linker removed
GlcNAc(b1-3)Gal(b1-4)Glc = molecular target: GlcNAc(b1-3)Gal(b1-4)Glc
How it was run: (§1)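 Glycan array data were curated from 3228 arrays in the Consortium for Functional Glycomics database and kept only where the protein sequence was available. Glycan names were converted to IUPAC-condensed notation, and columns mapping to the same glycan were averaged. The binding signal is a within-array Z-score, averaged across arrays of the same protein sequence at different concentrations or buffers and across linkers. Negative Z-scores can be read as non-binding.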

[1] = molecular target: GlcNAc(b1-3)Gal(b1-4)GlcNAc
How it was run: as §1

[2] = molecular target: GlcNAc(b1-3)Gal(b1-4)GlcNAc(b1-2)Man(a1-3)[GlcNAc(b1-3)Gal(b1-4)GlcNAc(b1-2)Man(a1-6)]Man(b1-4)GlcNAc(b1-4)GlcNAc
How it was run: as §1

[3] = molecular target: GlcNAc(b1-3)Gal(b1-4)GlcNAc(b1-2)Man(a1-3)[GlcNAc(b1-3)Gal(b1-4)GlcNAc(b1-2)Man(a1-6)]Man(b1-4)GlcNAc(b1-4)[Fuc(a1-6)]GlcNAc
How it was run: as §1

[4] = molecular target: GlcNAc(b1-3)Gal(b1-4)GlcNAc(b1-2)[GlcNAc(b1-3)Gal(b1-4)GlcNAc(b1-6)]Man(a1-6)[GlcNAc(b1-3)Gal(b1-4)GlcNAc(b1-2)Man(a1-3)]Man(b1-4)GlcNAc(b1-4)GlcNAc
How it was run: as §1

[5] = molecular target: GlcNAc(b1-3)Gal(b1-4)GlcNAc(b1-3)Gal(b1-4)GlcNAc
How it was run: as §1

[6] = molecular target: GlcNAc(b1-3)Gal(b1-4)GlcNAc(b1-3)Gal(b1-4)GlcNAc(b1-2)Man(a1-3)[GlcNAc(b1-3)Gal(b1-4)GlcNAc(b1-3)Gal(b1-4)GlcNAc(b1-2)Man(a1-6)]Man(b1-4)GlcNAc(b1-4)GlcNAc
How it was run: as §1

[7] = molecular target: GlcNAc(b1-3)Gal(b1-4)GlcNAc(b1-3)Gal(b1-4)GlcNAc(b1-2)Man(a1-3)[GlcNAc(b1-3)Gal(b1-4)GlcNAc(b1-3)Gal(b1-4)GlcNAc(b1-2)Man(a1-6)]Man(b1-4)GlcNAc(b1-4)[Fuc(a1-6)]GlcNAc
How it was run: as §1

[8] = molecular target: GlcNAc(b1-3)Gal(b1-4)GlcNAc(b1-3)Gal(b1-4)GlcNAc(b1-2)[GlcNAc(b1-3)Gal(b1-4)GlcNAc(b1-3)Gal(b1-4)GlcNAc(b1-6)]Man(a1-6)[GlcNAc(b1-3)Gal(b1-4)GlcNAc(b1-3)Gal(b1-4)GlcNAc(b1-2)Man(a1-3)]Man(b1-4)GlcNAc(b1-4)[Fuc(a1-6)]GlcNAc
How it was run: as §1

[9] = molecular target: GlcNAc(b1-3)Gal(b1-4)GlcNAc(b1-3)Gal(b1-4)GlcNAc(b1-3)Gal(b1-4)GlcNAc(b1-2)Man(a1-3)[GlcNAc(b1-3)Gal(b1-4)GlcNAc(b1-3)Gal(b1-4)GlcNAc(b1-3)Gal(b1-4)GlcNAc(b1-2)Man(a1-6)]Man(b1-4)GlcNAc(b1-4)GlcNAc
How it was run: as §1

[10] = molecular target: GlcNAc(b1-3)Gal(b1-4)GlcNAc(b1-3)Gal(b1-4)GlcNAc(b1-3)Gal(b1-4)GlcNAc(b1-2)Man(a1-3)[GlcNAc(b1-3)Gal(b1-4)GlcNAc(b1-3)Gal(b1-4)GlcNAc(b1-3)Gal(b1-4)GlcNAc(b1-2)Man(a1-6)]Man(b1-4)GlcNAc(b1-4)[Fuc(a1-6)]GlcNAc
How it was run: as §1

[11] = molecular target: GlcNAc(b1-3)Gal(b1-4)GlcNAc(b1-3)Gal(b1-4)GlcNAc(b1-3)Gal(b1-4)GlcNAc(b1-2)[GlcNAc(b1-3)Gal(b1-4)GlcNAc(b1-3)Gal(b1-4)GlcNAc(b1-3)Gal(b1-4)GlcNAc(b1-6)]Man(a1-6)[GlcNAc(b1-3)Gal(b1-4)GlcNAc(b1-3)Gal(b1-4)GlcNAc(b1-3)Gal(b1-4)GlcNAc(b1-2)Man(a1-3)]Man(b1-4)GlcNAc(b1-4)[Fuc(a1-6)]GlcNAc
How it was run: as §1

[12] = molecular target: GlcNAc(b1-3)Gal(b1-4)GlcNAc(b1-3)Gal(b1-4)GlcNAc(b1-3)Gal(b1-4)GlcNAc(b1-3)Gal(b1-4)GlcNAc(b1-2)Man(a1-3)[GlcNAc(b1-3)Gal(b1-4)GlcNAc(b1-3)Gal(b1-4)GlcNAc(b1-3)Gal(b1-4)GlcNAc(b1-3)Gal(b1-4)GlcNAc(b1-2)Man(a1-6)]Man(b1-4)GlcNAc(b1-4)GlcNAc
How it was run: as §1

[13] = molecular target: GlcNAc(b1-3)Gal(b1-4)GlcNAc(b1-3)Gal(b1-4)GlcNAc(b1-3)Gal(b1-4)GlcNAc(b1-3)Gal(b1-4)GlcNAc(b1-2)Man(a1-3)[GlcNAc(b1-3)Gal(b1-4)GlcNAc(b1-3)Gal(b1-4)GlcNAc(b1-3)Gal(b1-4)GlcNAc(b1-3)Gal(b1-4)GlcNAc(b1-2)Man(a1-6)]Man(b1-4)GlcNAc(b1-4)[Fuc(a1-6)]GlcNAc
How it was run: as §1

[14] = molecular target: GlcNAc(b1-3)Gal(b1-4)GlcNAc(b1-3)Gal(b1-4)GlcNAc(b1-3)Gal(b1-4)GlcNAc(b1-3)Gal(b1-4)GlcNAc(b1-2)[GlcNAc(b1-3)Gal(b1-4)GlcNAc(b1-3)Gal(b1-4)GlcNAc(b1-3)Gal(b1-4)GlcNAc(b1-3)Gal(b1-4)GlcNAc(b1-6)]Man(a1-6)[GlcNAc(b1-3)Gal(b1-4)GlcNAc(b1-3)Gal(b1-4)GlcNAc(b1-3)Gal(b1-4)GlcNAc(b1-3)Gal(b1-4)GlcNAc(b1-2)Man(a1-3)]Man(b1-4)GlcNAc(b1-4)[Fuc(a1-6)]GlcNAc
How it was run: as §1

[15] = molecular target: GlcNAc(b1-3)Gal(b1-4)GlcNAc(b1-3)Gal(b1-4)GlcNAc(b1-3)GalNAc
How it was run: as §1

[16] = molecular target: GlcNAc(b1-3)Gal(b1-4)GlcNAc(b1-3)GalNAc
How it was run: as §1

[17] = molecular target: GlcNAc(b1-3)Gal(b1-4)GlcNAc(b1-3)[GlcNAc(b1-3)Gal(b1-4)GlcNAc(b1-3)]GalNAc
How it was run: as §1

[18] = molecular target: GlcNAc(b1-3)Gal(b1-4)GlcNAc(b1-6)[Gal(b1-3)]GalNAc
How it was run: as §1

[19] = molecular target: GlcNAc(b1-3)Gal(b1-4)GlcNAc(b1-6)[GlcNAc(b1-3)Gal(b1-3)]GalNAc
How it was run: as §1

[20] = molecular target: GlcNAc(b1-3)Gal(b1-4)GlcNAc(b1-6)[GlcNAc(b1-3)]Gal(b1-4)GlcNAc
How it was run: as §1

GlcNAc(b1-3)GalNAc = molecular target: GlcNAc(b1-3)GalNAc
How it was run: as §1

GlcNAc(b1-3)Man = molecular target: GlcNAc(b1-3)Man
How it was run: as §1

[21] = molecular target: GlcNAc(b1-3)[GlcNAc(b1-4)][GlcNAc(b1-6)]GlcNAc
How it was run: as §1

[22] = molecular target: GlcNAc(b1-3)[GlcNAc(b1-6)]Gal(b1-4)GlcNAc
How it was run: as §1

[23] = molecular target: GlcNAc(b1-3)[GlcNAc(b1-6)]GalNAc
How it was run: as §1

[24] = molecular target: GlcNAc(b1-4)Gal(b1-4)GlcNAc
How it was run: as §1

GlcNAc(b1-4)GlcNAc = molecular target: GlcNAc(b1-4)GlcNAc
How it was run: as §1

[25] = molecular target: GlcNAc(b1-4)GlcNAc(b1-4)GlcNAc
How it was run: as §1

[26] = molecular target: GlcNAc(b1-4)GlcNAc(b1-4)GlcNAc(b1-4)GlcNAc(b1-4)GlcNAc
How it was run: as §1

[27] = molecular target: GlcNAc(b1-4)GlcNAc(b1-4)GlcNAc(b1-4)GlcNAc(b1-4)GlcNAc(b1-4)GlcNAc
How it was run: as §1

[28] = molecular target: GlcNAc(b1-4)[GlcNAc(b1-6)]GalNAc
How it was run: as §1

[29] = molecular target: GlcNAc(b1-6)Gal(b1-4)GlcNAc
How it was run: as §1

GlcNAc(b1-6)GalNAc = molecular target: GlcNAc(b1-6)GalNAc
How it was run: as §1

[30] = molecular target: GlcNAc6S(b1-3)Gal(b1-4)GlcNAc
How it was run: as §1

Kdn(a2-3)Gal(b1-3)GalNAc = molecular target: Kdn(a2-3)Gal(b1-3)GalNAc
How it was run: as §1

Kdn(a2-3)Gal(b1-3)GlcNAc = molecular target: Kdn(a2-3)Gal(b1-3)GlcNAc
How it was run: as §1

Kdn(a2-3)Gal(b1-4)Glc = molecular target: Kdn(a2-3)Gal(b1-4)Glc
How it was run: as §1

Kdn(a2-3)Gal(b1-4)GlcNAc = molecular target: Kdn(a2-3)Gal(b1-4)GlcNAc
How it was run: as §1

[31] = molecular target: Kdn(a2-3)Gal(b1-4)[Fuc(a1-3)]GlcNAc
How it was run: as §1

Kdn(a2-6)Gal(b1-4)GlcNAc = molecular target: Kdn(a2-6)Gal(b1-4)GlcNAc
How it was run: as §1

[32] = molecular target: Man(a1-2)Man(a1-2)Man(a1-3)Man
How it was run: as §1

[33] = molecular target: Man(a1-2)Man(a1-2)Man(a1-6)[Man(a1-3)]Man
How it was run: as §1

Man(a1-2)Man(a1-3)Man = molecular target: Man(a1-2)Man(a1-3)Man
How it was run: as §1

[34] = molecular target: Man(a1-2)Man(a1-3)[Man(a1-2)Man(a1-6)]Man
How it was run: as §1

B1: Thrombomodulin (Mus musculus) (protein)
chain: ALAKLQPTGSQCVEHECFALFQGPATFLDASQACQRLQGHLMTVRSSVAADVISLLLSQSSMDLGPWIGLQLPQGCDDPVHLGPLRGFQWVTGDNHTSYSRWARPNDQTAPLCGPLCVTVSTATEAAPGEPAWEEKPCETETQGFLCEFYFTASC
glycan array binding signal (z-score) (GlcNAc(b1-3)Gal(b1-4)Glc): -0.068 | glycan array binding signal (z-score) [1]: -0.109 | glycan array binding signal (z-score) [2]: -0.135 | glycan array binding signal (z-score) [3]: 0.2 | glycan array binding signal (z-score) [4]: -0.077 | glycan array binding signal (z-score) [5]: -0.109 | glycan array binding signal (z-score) [6]: 0.553 | glycan array binding signal (z-score) [7]: -0.017 | glycan array binding signal (z-score) [8]: -0.284 | glycan array binding signal (z-score) [9]: 0.477 | glycan array binding signal (z-score) [10]: 0.254 | glycan array binding signal (z-score) [11]: -0.094 | glycan array binding signal (z-score) [12]: 0.02 | glycan array binding signal (z-score) [13]: -0.16 | glycan array binding signal (z-score) [14]: 0.068 | glycan array binding signal (z-score) [15]: -0.135 | glycan array binding signal (z-score) [16]: -0.07 | glycan array binding signal (z-score) [17]: 0.05 | glycan array binding signal (z-score) [18]: -0.178 | glycan array binding signal (z-score) [19]: -0.037 | glycan array binding signal (z-score) [20]: -0.297 | glycan array binding signal (z-score) (GlcNAc(b1-3)GalNAc): -0.372 | glycan array binding signal (z-score) (GlcNAc(b1-3)Man): 0.17 | glycan array binding signal (z-score) [21]: -0.119 | glycan array binding signal (z-score) [22]: 0.124 | glycan array binding signal (z-score) [23]: -0.252 | glycan array binding signal (z-score) [24]: -0.113 | glycan array binding signal (z-score) (GlcNAc(b1-4)GlcNAc): -0.026 | glycan array binding signal (z-score) [25]: -0.326 | glycan array binding signal (z-score) [26]: 0.022 | glycan array binding signal (z-score) [27]: -0.096 | glycan array binding signal (z-score) [28]: -0.367 | glycan array binding signal (z-score) [29]: 0.036 | glycan array binding signal (z-score) (GlcNAc(b1-6)GalNAc): -0.213 | glycan array binding signal (z-score) [30]: 0.02 | glycan array binding signal (z-score) (Kdn(a2-3)Gal(b1-3)GalNAc): -0.027 | glycan array binding signal (z-score) (Kdn(a2-3)Gal(b1-3)GlcNAc): -0.121 | glycan array binding signal (z-score) (Kdn(a2-3)Gal(b1-4)Glc): -0.413 | glycan array binding signal (z-score) (Kdn(a2-3)Gal(b1-4)GlcNAc): 0.049 | glycan array binding signal (z-score) [31]: -0.307 | glycan array binding signal (z-score) (Kdn(a2-6)Gal(b1-4)GlcNAc): -0.069 | glycan array binding signal (z-score) [32]: 0.005 | glycan array binding signal (z-score) [33]: -0.278 | glycan array binding signal (z-score) (Man(a1-2)Man(a1-3)Man): -0.114 | glycan array binding signal (z-score) [34]: -0.284
